Assay results published in PubChem BioAssay AID686979 (National Center for Advancing Translational Sciences (NCATS), 2013).
The whole screen tested about 420,000 compounds, of which about 50,000 (12%) were called active. This list was built around the results that the source calls inconclusive (neither active nor inactive); the mix of calls is not that of the screen. The call rests on the fitted dose curve; in most records, active means well fitted inhibition curve with a large enough effect; inconclusive means small, poorly fitted or top-dose-only effect; inactive means flat fitted curve, though single readings scatter. No potency is given beside an inconclusive call; the fits are too rough.

Assay: qHTS for Inhibitors of human tyrosyl-DNA phosphodiesterase 1 (TDP1): qHTS in cells in presence of CPT; further: nearly all actives have a fitted effect of over 55% in size
Settings: chicken DT40 Tdp1-/-;hTDP1 cells + 20 nM CPT, ATP luminescence, 48 h; activity change, negative = growth inhibition: at 46.2 µM (top of the series)
Procedure, shortened: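 Cell growth measured by CellTiter-Glo luminescence after a minimum 48 h, 37 C compound exposure with 20 nM CPT in Tdp1-knockout DT40 cells stably expressing hTDP1, seeded 400/well; qHTS titration format.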
On the % scale 0 is the no-effect control and ±100 the full control effect; potency means the concentration at half of the fitted maximal effect; tags describe the fitted curve by direction and shape.

Row | Structure (SMILES) | activity change, negative = growth inhibition | Potency
1 | Cc1ccnc(N(C(=O)Nc2ccccc2)C2=NCC(C)(C)S2)c1 | inactive: 39.6% | –
2 | COc1ccc(S(=O)(=O)N2CC3CCCN3c3ccc(C(F)(F)F)cc32)cc1 (stereo not drawn) | – | active: 25.9 µM
3 | COc1ccc(OC)c(-c2c(=O)n(OCc3ccccc3Br)c3ccccc3[n+]2[O-])c1 | – | inconclusive [inhibitor, single point]
4 | O=C(/C=C/c1ccc(S(=O)(=O)NCc2ccco2)cc1)NCc1cccc(Cl)c1 | – | inconclusive [inhibitor, single point]
5 | Nc1c(O)ccc2c1C(=O)c1ccccc1C2=O | inconclusive: -31.1% [inhibitor] | –
6 | Cc1c(C(=O)N(C)C)sc2c1c(=O)n(-c1ccc(Cl)c(Cl)c1)c(=O)n2Cc1ccc(F)cc1 | – | inconclusive [inhibitor, single point]
7 | CC1(C)CC(=O)c2cnn(-c3nc4ccccc4[nH]3)c2C1 | – | inconclusive [inhibitor, single point]
8 | CC1(C)N=C(N)N=C(N)N1c1cccc(CC(=O)Nc2ccccc2)c1 | – | active: 9.2 µM
9 | COc1ccc(NC(=O)CN(C)C(=O)c2ccc(NC3CC3)c([N+](=O)[O-])c2)cc1 | – | inconclusive [inhibitor, partial curve]
10 | CCCCc1c(-c2ccc(OC)c(OC)c2)ncn1CCc1ccccc1OC | – | active: 5.8 µM
11 | CN(C(=S)NC(=O)c1ccccc1)C1CCCCC1 | – | inconclusive [inhibitor, single point]
12 | COc1ccccc1C1C(C(N)=O)=C(C)Nc2nc(SCc3ccccc3F)nn21 (stereo not drawn) | – | inconclusive [inhibitor, single point]
13 | COc1ccc(N(CCCN2C(=O)c3cccc4cccc(c34)C2=O)C(=O)c2cccs2)cc1 | – | inconclusive [inhibitor, single point]
14 | Cc1ccc(C(C)C)c(OCC(=O)Nc2ccc3c(c2)nc(CCN2CCCCC2)n3C)c1 | – | inconclusive [inhibitor, single point]
15 | COc1ccc(S(=O)(=O)N(C)C)cc1NC(=O)CN1CCN(C(=O)C2CC2)CC1 | – | inconclusive [inhibitor, single point]
16 | N#Cc1ccccc1COc1cccc2c1CCCC2O (stereo not drawn) | – | inconclusive [inhibitor, single point]
17 | Cn1c(CNc2ccc(Cl)cc2)nc2ccccc21 | – | active: 16.4 µM
18 | CCOc1c(Br)cc(C2NS(=O)(=O)N=C3CCCCCN32)cc1OC (stereo not drawn) | – | inconclusive [inhibitor, single point]
19 | Cc1cc(C(=O)COC(=O)c2ccc(O)cc2)c(C)n1Cc1ccco1 | – | inconclusive [inhibitor, single point]
20 | Cc1cc(=O)oc2cc(OCC(=O)NCCc3nc4ccccc4[nH]3)ccc12 | inactive: -21.3% | –
21 | CC(=O)Nc1ccc(-c2ccc3nnc(C)n3n2)cc1 | inconclusive: -32.3% [inhibitor] | –
22 | O=C(O)c1cccc(NC(=O)c2cn(-c3ccccc3)nc2-c2cc3ccccc3o2)c1 | – | inconclusive [inhibitor, single point]
23 | COc1ccccc1/C=C/C=N/n1c(-c2ccc(F)cc2)n[nH]c1=S | – | inconclusive [inhibitor, single point]
24 | CCCNC(=O)C1(C)CCCN(Cc2ccccc2C#N)C1 (stereo not drawn) | – | inconclusive [inhibitor, partial curve, poor fit]
25 | C/C(=N\NC(=O)c1cc(-c2ccccc2C)nc2ccccc12)c1cccnc1 | – | inconclusive [inhibitor, single point]

Row | Structure (SMILES) | activity change, negative = growth inhibition | Potency
26 | CCOC(=O)C1CCc2c(ccc3ccccc23)N1CCC#N (stereo not drawn) | – | inconclusive [inhibitor, single point]
27 | Cc1cc(-n2c(C)cc(C(=O)CSc3nncn3C)c2C)no1 | – | inconclusive [inhibitor, single point]
28 | Cc1ccc(-c2csc(N3CCN(S(=O)(=O)c4ccc5c(c4)NC(=O)CO5)CC3)n2)cc1 | – | inconclusive [inhibitor, single point]
29 | CCn1ncc(CN2CCCC(C(=O)Nc3cccc(-c4cc5ccccc5[nH]4)c3)C2)c1C (stereo not drawn) | – | active: 20.6 µM
30 | O=C(NCCc1ccccc1)C(=O)NCCC1CCCCN1S(=O)(=O)c1cccs1 (stereo not drawn) | – | inconclusive [inhibitor, single point]
31 | O=c1cc(-c2cccc(O)c2O)oc2ccccc12 | – | inconclusive [inhibitor, single point]
32 | CN(C(=O)CSc1nc2ccc(NC(=O)c3ccc(F)cc3)cc2s1)c1ccccc1 | – | active: 16.4 µM
33 | Nc1cc2nsnc2cc1Br | – | active: 5.8 µM
34 | O=C(Nc1ccccn1)C1(c2ccccc2)CCCC1 | – | inconclusive [inhibitor, single point]
35 | Cc1ccccc1NC(=O)c1c(F)c(F)c(F)c(F)c1F | inactive: -11.3% | –
36 | Cc1ccc(NC(=O)CCc2nnc3ccc(N4CCOCC4)nn23)cc1C | inactive: -11.3% | –
37 | CCCCN(C1CCS(=O)(=O)C1)S(=O)(=O)c1cccs1 (stereo not drawn) | inactive: 1.87% | –
38 | Cc1cnccc1CN(C)Cc1nc(Cc2ccccc2Cl)no1 | – | active: 18.4 µM
39 | O=C(CCCN1C(=O)/C(=C/c2ccccc2)SC1=S)Nc1ccc(O)cc1 | – | inconclusive [inhibitor, single point]
40 | Nc1ncnc2c1ncn2[C@@H]1O[C@H](CNC(=O)[C@H]2CCC(=O)N2)[C@@H](O)[C@H]1O | inactive: -1.15% | –
41 | CC(=O)c1cc(C#N)c(N2CCCC2)nc1C | inactive: -10.3% | –
42 | Cc1ccc(NC(=O)c2ccc(-c3nn(C)c(=O)c4ccccc34)cc2)c(C)c1 | – | inconclusive [inhibitor, single point]
43 | COc1ccc(C(=O)Nc2cccnc2)cc1OC | – | inconclusive [inhibitor, full curve, poor fit]
44 | Cc1cccc(C)c1-n1nnnc1C1(C)CCC(=O)N1CC1CCCCC1 (stereo not drawn) | – | inconclusive [inhibitor, single point]
45 | CCOC(=O)C1(CCOc2ccccc2)CCN(Cc2cccn2-c2ncccn2)CC1 | – | inconclusive [inhibitor, single point]
46 | O=C(NCc1cccc(C(F)(F)F)c1)c1cccc2c1C(=O)c1ccc(N3CCC(Cc4ccccc4)CC3)cc1S2(=O)=O | inconclusive: -30.7% [inhibitor] | –
47 | CCOc1ncnc2c1sc1nc(C)cc(C)c12 | inactive: 10.6% | –
48 | Cc1ccccc1CCNC(=O)c1cc2ccccn2n1 | – | inconclusive [inhibitor, single point]
49 | O=C1[C@H](Cc2ccccc2)NCCCC[C@@H](c2ccc(Cl)cc2)N1Cc1ccccc1 | – | active: 18.4 µM
50 | CCOc1cc(CNCc2ccccn2)ccc1OCC(=O)NC1CCCCC1 | – | inconclusive [inhibitor, single point]

Row | Structure (SMILES) | activity change, negative = growth inhibition | Potency
51 | O=C(Nc1ccc(CN2CCOCC2)cc1)c1ccccc1F | inactive: -3.84% | –
52 | Cc1ccc(C(=O)CC(=O)c2ccc(C)cc2O)cc1 | – | inconclusive [inhibitor, single point]
53 | COC(=O)c1cc(Br)c(=O)n(CCc2ccccc2)c1 | inconclusive: -31.2% [inhibitor] | –
54 | O=C(Cc1c(Cl)cccc1Cl)Nc1ccc(S(=O)(=O)Nc2ncccn2)cc1 | inactive: 18.7% | –
55 | Cc1cc[n+](-c2nc([O-])sc2/C=N/Nc2ccc([N+](=O)[O-])cc2)cc1 | inactive: -3.38% | –
56 | COCCn1c(=O)c(C)nc2cnc(OC)nc21 | inactive: 2.63% | –
57 | N#C/C(=C\c1ccccc1Br)C(=O)NC1CC1 | – | inconclusive [inhibitor, partial curve]
58 | COc1ccc2[nH]c(=O)c(CN(C(=O)NC3CCCCC3)C3CCCC3)cc2c1 | inactive: -21% | –
59 | CCCCC(=O)NC(c1ccc([N+](=O)[O-])cc1)c1c(O)ccc2ccccc12 (stereo not drawn) | – | active: 16.4 µM
60 | Cc1ccnc(NS(=O)(=O)c2ccc(NC(=O)c3oc4ccc(F)cc4c3C)cc2)n1 | inactive: -8.42% | –
61 | COc1cc(NC(=O)c2ccc(C)cc2)c(OC)cc1NC(=O)CN1CCCCC1 | – | active: 20.6 µM
62 | CCOC(=O)Nc1ccc2c(c1)N(C(=O)CCN1CCOCC1)c1ccccc1S2 | – | inconclusive [inhibitor, partial curve]
63 | O=C(/C(C=Nc1cc2c(oc1=O)CCCC2=O)=C(\O)c1ccccc1)c1ccccc1 | – | inconclusive [inhibitor, single point]
64 | CCOC(=O)c1c(CSc2ccc(C)cc2)n(C)c2cc(Br)c(O)c(CN(C)C)c12 | – | inconclusive [inhibitor, single point]
65 | Cc1ccc(C)c(-n2c(SCC(=O)Nc3nonc3C)nnc2-c2ccoc2C)c1 | – | inconclusive [inhibitor, single point]
66 | COC(=O)CNS(=O)(=O)c1ccc(C)cc1 | inactive: 3.9% | –
67 | CC1(C)C(C=C(Cl)Cl)C1C(=O)N/N=C/c1ccccc1F (stereo not drawn) | inconclusive: -35.5% [inhibitor] | –
68 | COc1ccccc1OCCC(=O)OCC(=O)c1c(N)n(C)c(=O)n(C)c1=O | inactive: -11% | –
69 | CC(NC(=O)C1CCOCC1)c1nnc2n1CCN(Cc1cc3c(cc1Cl)OCO3)CC2 (stereo not drawn) | inactive: 2.16% | –
70 | COc1ccc(OC)c(CCNC(=O)Cn2nc(C)c3c(C)n(-c4ccccc4)nc3c2=O)c1 | – | inconclusive [inhibitor, single point]
71 | O=C(C1=C[C@H](C2CCCCC2)C[C@H](OCCCCO)O1)N1CCN(Cc2ccc3c(c2)OCO3)CC1 | – | active: 11.6 µM
72 | N/C(=N\OC(=O)c1ccc(Cl)cc1Cl)c1ccncc1 | inactive: -14.2% | –
73 | CCN1C(=O)[C@H]2[C@@H](c3ccc(OC)cc3)N[C@]3(CCCN(CC4CCCCC4)C3=O)[C@H]2C1=O | inactive: 18% | –
